The record followed here is the supplement of paper PMC9135407.

The assay deals with primary human hepatic stellate cells (donor 1). Briefly: scaled lipid accumulation score (0 = DMSO-like, 1 = nortriptyline-like); higher = stronger HSC inactivation (lipid re-accumulation), active = hit call of the paper. The following applies: 48 h.
Setting [1] is: library stock concentration: 3.33 mM.
[2] abbreviates: library stock concentration: 10 mM.
Setting [3] is: library stock concentration: 80 uM.
Where [4] appears, read: library stock concentration: 400 uM.
The mark [5] stands for this setting: library stock concentration: 2 mM.
Setting [6] is: library stock concentration: 1 mM.
Where [7] appears, read: library stock concentration: 5.9 mM.

Values joined by “and” are separate entries in the source; they are usually repeats but may differ in a detail not shown here. Equal values may be shown once. Where a name gives a salt, the structure may show the parent alone. The whole screen tested about 5,800 compounds, of which about 620 (11%) showed activity.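 The calls were made as follows: active = score above a cut-off or among the top three wells of a plate; in these data no inactive exceeds 0.85.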 Only a part is listed here, and it is no random draw.

On to `CCCCOc1ccc(CC(=O)NO)cc1` [Bufexamac], for which the “scaled lipid accumulation score” value was inactive: ≤ 0. The “scaled lipid accumulation score” value under setting [1] was inactive: ≤ 0. Further, the “scaled lipid accumulation score” value under setting [2] is inactive: ≤ 0.
Take `CC(=O)OC(C)C[N+](C)(C)C` (stereo not drawn) [Methacholine chloride]: the “scaled lipid accumulation score” value is inactive: ≤ 0. Moreover, under setting [2], the “scaled lipid accumulation score” value was inactive: ≤ 0.
As for `CC(=O)OC(C)C[N+](C)(C)C` (stereo not drawn) [Acetyl-beta-methylcholine chloride], the “scaled lipid accumulation score” value under setting [2] is inactive: ≤ 0.
Turning to `C=CCc1ccccc1OCC(O)CNC(C)C` (stereo not drawn) [Alprenolol hydrochloride], the “scaled lipid accumulation score” value is inactive: 0.634. Further, under setting [2], the “scaled lipid accumulation score” value was inactive: 0.5.
`C=CCc1ccccc1OCC(O)CNC(C)C` (stereo not drawn) [Alprenolol HCl]: the “scaled lipid accumulation score” value (library stock concentration: 8 mM) was inactive: 0.203.
On to `Oc1c(Cl)cc(Cl)cc1Sc1cc(Cl)cc(Cl)c1O` [Bithionate sodium], for which the “scaled lipid accumulation score” value (library stock concentration: 5 mM) was inactive: 0.057.
As to `Oc1c(Cl)cc(Cl)cc1Sc1cc(Cl)cc(Cl)c1O` [Bithionol], the “scaled lipid accumulation score” value under setting [2] is inactive: ≤ 0.
The same measure, in the same setting: as for `Cc1nc(N=Nc2ccc(S(=O)(=O)O)cc2S(=O)(=O)O)c(COP(=O)(O)O)c(C=O)c1O`, the figure is inactive: ≤ 0.
Regarding `Cc1ccc(O)c([C@H](CCN(C(C)C)C(C)C)c2ccccc2)c1` [Tolterodine tartrate], the “scaled lipid accumulation score” value runs as follows: under setting [1], inactive: 0.216; under setting [2], inactive: 0.836.
Consider `Cc1ccc(O)c([C@H](CCN(C(C)C)C(C)C)c2ccccc2)c1`, for which the “scaled lipid accumulation score” value under setting [2] is inactive: 0.505.
Same read-out and setting: as for `CCCCC[C@H](CC(=O)NO)C(=O)N[C@H](C(=O)N1CCC[C@H]1CO)C(C)C` [Actinonin], the figure is inactive: ≤ 0.
With `Cc1cc(C)cc(NC(=O)Cc2ccc(OC(C)(C)C(=O)O)cc2)c1` [Efaproxiral Sodium], the “scaled lipid accumulation score” value is, setting by setting: under setting [1], inactive: ≤ 0; under setting [2], inactive: ≤ -0.001.
On to `CCN1/C(=C/C(C)=O)Sc2ccc(OC)cc21`, for which the “scaled lipid accumulation score” value by setting is: under setting [3], inactive: ≤ 0; under setting [4], inactive: ≤ 0; under setting [5], inactive: ≤ 0; under setting [2], inactive: ≤ 0 and inactive: ≤ -0.034.
Regarding `CN(C)C(=O)N=NC(=O)N(C)C` [N,N,N',N'-Tetramethylazodicarboxamide], the “scaled lipid accumulation score” value under setting [2] was inactive: ≤ -0.07.
`Nc1nc(=O)c2c([nH]1)NCC(CNc1ccc(C(=O)N[C@@H](CCC(=O)O)C(=O)O)cc1)N2C=O` (stereo partly drawn) [Leucovorin calcium]: the “scaled lipid accumulation score” value under setting [2] was inactive: ≤ 0.
`CCCCCCCCCCCCCCCCO` [1-Hexadecanol]: the “scaled lipid accumulation score” value is inactive: ≤ 0 under setting [1] and inactive: ≤ -0.001 under setting [2].
The like results for `Cn1c(=O)c(F)c(Nc2ccc(I)cc2F)c2c(=O)n(C[C@@H](O)CO)cnc21` were, in that order, inactive: 0.027 and inactive: 0.174.
Take `CC(C)(C)c1cc(NC(=O)Nc2ccc(-c3cn4c(n3)sc3cc(OCCN5CCOCC5)ccc34)cc2)no1` [Quizartinib  (AC220) (10 mM)]: under setting [2], the “scaled lipid accumulation score” value is active: 1.7.
With `CC(C)(C)c1cc(NC(=O)Nc2ccc(-c3cn4c(n3)sc3cc(OCCN5CCOCC5)ccc34)cc2)no1` [Quizartinib  (AC220) (2 mM)], the “scaled lipid accumulation score” value under setting [5] is active: 1.02.
`CCOc1ccc(-c2nc3ccc(-c4nc5ccc(N6CCN(C)CC6)cc5[nH]4)cc3[nH]2)cc1`: for the setting “library stock concentration: 8.9 mM”, the “scaled lipid accumulation score” value is inactive: 0.339.
As to `CCCCC/C=C\C/C=C\CC/C=C\CCCC(=O)O` [Pinolenic Acid], the “scaled lipid accumulation score” value under setting [6] is inactive: 0.009.
`COc1ccc(-c2cc3c(C)nc(N)nc3n([C@H]3CC[C@H](OCCO)CC3)c2=O)cn1`: the “scaled lipid accumulation score” value reads like this: under setting [1], inactive: ≤ 0; under setting [2], inactive: 0.45.
The like results for `CC1=NN(c2ccc(C(=O)O)cc2)C(=O)C1=Cc1ccc(-c2cc(C)c(C)cc2[N+](=O)[O-])o1` were, in that order, inactive: ≤ -0.009 and inactive: ≤ 0.
With `CCC(C)(C)c1ccc(CC(C)CN2C[C@@H](C)O[C@@H](C)C2)cc1` (stereo partly drawn), under setting [2], the “scaled lipid accumulation score” value was inactive: 0.093.
Consider `CCC(C)(C)c1ccc(CC(C)CN2C[C@@H](C)O[C@@H](C)C2)cc1` (stereo partly drawn) [Amorolfine], for which, where the note is “library stock concentration: 6.3 mM”, the “scaled lipid accumulation score” value was inactive: ≤ -0.006.
Consider `CCC(C)(C)c1ccc(CC(C)CN2C[C@@H](C)O[C@@H](C)C2)cc1` (stereo partly drawn) [Amorolfine HCl], for which the “scaled lipid accumulation score” value under setting [1] is inactive: 0.118 and the “scaled lipid accumulation score” value under setting [2] is inactive: 0.354.
As to `CC(C)N(CCC(=O)c1ccc2ccccc2c1)Cc1ccccc1`, the “scaled lipid accumulation score” value was inactive: 0.613 under setting [1] and inactive: 0.619 under setting [2].
For `CCOC(=O)c1ccc(C#Cc2ccc3c(c2)C(C)(C)CCS3)nc1` [Tazarotene] the same measures were inactive: ≤ 0 and inactive: ≤ 0.
As to `C=CC(=O)N1CCc2ccc(-n3c(=O)ccc4cnc5ccc(-c6cnn(C)c6)cc5c43)cc21`, under setting [2], the “scaled lipid accumulation score” value is active: 1.19.
Consider `CC[C@]12CCCN3CCc4c(n(c5ccccc45)[C@@](O)(C(=O)OC)C1)[C@@H]32` [Vincamine], for which the “scaled lipid accumulation score” value was inactive: 0.122. In addition, under setting [2], the “scaled lipid accumulation score” value was inactive: ≤ 0.
`O=C(NC1CC1)c1cccc(-c2ccc3c(NC(=O)C4CC4)n[nH]c3c2)c1`: the “scaled lipid accumulation score” value is, setting by setting: under setting [3], inactive: ≤ 0; under setting [4], inactive: ≤ 0; under setting [5], inactive: ≤ 0; under setting [2], inactive: ≤ 0.
Take `CC1=C(C(=O)OCCN(Cc2ccccc2)c2ccccc2)C(c2cccc([N+](=O)[O-])c2)C(P2(=O)OCC(C)(C)CO2)=C(C)N1` (stereo not drawn) [Efonidipine hydrochloride monoethanolate]: the “scaled lipid accumulation score” value under setting [2] is inactive: ≤ 0.
As to `CCCCCCCCCCCCCCCCn1cc[n+](Cc2ccccc2)c1C.[I-]`, the “scaled lipid accumulation score” value under setting [1] is active: 0.92.
As to `CCCNS(=O)(=O)Nc1ncnc(OCCOc2ncc(Br)cn2)c1-c1ccc(Br)cc1` [Macitentan], the “scaled lipid accumulation score” value is inactive: ≤ -0.009 under setting [1] and inactive: ≤ 0 under setting [2].
As to `CC(CCc1ccc(O)cc1)NCCc1ccc(O)c(O)c1` (stereo not drawn) [Dobutamine hydrochloride], the “scaled lipid accumulation score” value was inactive: 0.023. The “scaled lipid accumulation score” value under setting [7] was inactive: ≤ 0. Besides, under setting [2], the “scaled lipid accumulation score” value is inactive: ≤ -0.063 and inactive: 0.03 and inactive: ≤ -0.027.
For the molecule `CC(CCc1ccc(O)cc1)NCCc1ccc(O)c(O)c1` (stereo not drawn) [Dobutamine HCl], the “scaled lipid accumulation score” value (library stock concentration: 6.6 mM) is inactive: ≤ -0.001.
As for `N[C@@H](CCC(=O)N[C@@H](CSN=O)C(=O)NCC(=O)O)C(=O)O` [S-Nitrosoglutathione], the “scaled lipid accumulation score” value under setting [2] is inactive: ≤ -0.032.
As to `CC(O)(C(=O)Nc1ccc(S(=O)(=O)c2ccccc2)cc1)C(F)(F)F` (stereo not drawn), the “scaled lipid accumulation score” value is inactive: ≤ 0 under setting [2] and inactive: 0.145 (library stock concentration: 13.4 mM).
`COc1cc2c(Oc3ccc(NC(=O)C4(C(=O)Nc5ccc(F)cc5)CC4)cc3F)ccnc2cc1OCCCN1CCOCC1`: the “scaled lipid accumulation score” value under setting [1] is active: 1.09.
Turning to `CCOc1nc2cccc(C(=O)OC(C)OC(=O)OC3CCCCC3)c2n1Cc1ccc(-c2ccccc2-c2nn[nH]n2)cc1` (stereo not drawn) [Candesartan Cilexetil], the “scaled lipid accumulation score” value reads like this: under setting [1], inactive: ≤ 0; under setting [2], inactive: ≤ 0.
With `CCOc1nc2cccc(C(=O)OC(C)OC(=O)OC3CCCCC3)c2n1Cc1ccc(-c2ccccc2-c2nn[nH]n2)cc1` (stereo not drawn) [Candesartan cilextil], the “scaled lipid accumulation score” value under setting [2] is inactive: ≤ -0.027.
On to `CCN(CC)CCCCNc1ncc2c(n1)N(C)C(=O)N(c1c(Cl)c(OC)cc(OC)c1Cl)C2`, for which the “scaled lipid accumulation score” value was inactive: ≤ -0.008 under setting [3], inactive: ≤ -0.008 under setting [4], inactive: ≤ -0.001 under setting [5] and inactive: 0.416 under setting [2].
For `O=c1cc(O)cc(/C=C/c2ccc(O)c(O)c2)o1` [Hispidin], the “scaled lipid accumulation score” value under setting [2] is inactive: ≤ -0.07.
In the case of `C#C[C@]1(O)CCC2C3CCC4=CC(=O)CC[C@@H]4C3CC[C@@]21CC` (stereo partly drawn) [Norgestrel], the “scaled lipid accumulation score” value (library stock concentration: 6.4 mM) is active: 1.05.
On to `Nc1ccc(S(N)(=O)=O)cc1` [Sulfanilamide], for which the “scaled lipid accumulation score” value was inactive: 0.004. Also, the “scaled lipid accumulation score” value under setting [1] was inactive: ≤ 0. Moreover, the “scaled lipid accumulation score” value under setting [2] is inactive: ≤ 0 and inactive: 0.002. Moreover, the “scaled lipid accumulation score” value (library stock concentration: 11.6 mM) is inactive: 0.007.
For the molecule `CC1CCN(CCCC(=O)c2ccc(F)cc2)CC1`, the “scaled lipid accumulation score” value under setting [2] was inactive: ≤ 0.
On to `CC1CCN(CCCC(=O)c2ccc(F)cc2)CC1` [Melperone hydrochloride], for which the “scaled lipid accumulation score” value under setting [2] was inactive: 0.058.
Still for that read-out and setting: as for `CC1CCN(CCCC(=O)c2ccc(F)cc2)CC1` [Metylperon], the figure is inactive: ≤ 0.
In the case of `CCCCCCCCCCCC(=O)O` [Lauric Acid], the “scaled lipid accumulation score” value under setting [6] was inactive: 0.017.
Take `O=S(=O)(c1cccc2c(I)cccc12)N1CCCNCC1`: under setting [2], the “scaled lipid accumulation score” value was active: 0.931.
In the case of `Clc1ccc(-c2nc3sccn3c2/C=N/OCc2ccc(Cl)c(Cl)c2)cc1`, the “scaled lipid accumulation score” value under setting [2] is inactive: 0.034.
On to `CCN1CCC[C@H]1CNC(=O)c1cc(S(N)(=O)=O)ccc1OC` [Levosulpiride], for which the “scaled lipid accumulation score” value by setting is: under setting [1], inactive: ≤ 0; under setting [2], inactive: ≤ 0.
As for `CCN1CCC[C@H]1CNC(=O)c1cc(S(N)(=O)=O)ccc1OC`, the “scaled lipid accumulation score” value under setting [2] is inactive: ≤ 0.
Turning to `CCN1CCC[C@H]1CNC(=O)c1cc(S(N)(=O)=O)ccc1OC` [(S)-(-)-Sulpiride], the “scaled lipid accumulation score” value under setting [2] was inactive: 0.016.
As for `CCN1CCC[C@H]1CNC(=O)c1cc(S(N)(=O)=O)ccc1OC` [Sulpiride s (-)], the “scaled lipid accumulation score” value under setting [7] is inactive: ≤ -0.006.
Regarding `CNCCCC1c2ccccc2C=Cc2ccccc21.Cl` [Protriptyline hydrochloride], the “scaled lipid accumulation score” value was active: 1.24. The “scaled lipid accumulation score” value under setting [2] is active: 0.911.
Take `N[C@@H](CSS(=O)(=O)O)C(=O)O` [S-Sulfo-L-cysteine sodium salt]: under setting [2], the “scaled lipid accumulation score” value was inactive: ≤ 0.
For `CCCCCC(O)C=CC1C(O)CC(O)C1CCCCCCC(=O)O` (stereo not drawn) [Prostaglandin  F1a], the “scaled lipid accumulation score” value under setting [6] is inactive: ≤ -0.021.
Turning to `CCCCC[C@H](O)/C=C/[C@@H]1[C@@H](CCCCCCC(=O)O)[C@@H](O)C[C@H]1O` [Prostaglandin F1.alpha.], under setting [6], the “scaled lipid accumulation score” value was inactive: ≤ 0.
As for `CN(CCOc1ccc(-c2ccc3c(c2)OCO3)cc1C(C)(C)C)CC(=O)O`, the “scaled lipid accumulation score” value under setting [2] is inactive: ≤ 0.
For `CC(C)(Oc1ccc(C2CC2(Cl)Cl)cc1)C(=O)O` (stereo not drawn) [Ciprofibrate], the “scaled lipid accumulation score” value is inactive: ≤ 0. Further, under setting [1], the “scaled lipid accumulation score” value is inactive: ≤ 0. Moreover, the “scaled lipid accumulation score” value under setting [2] is inactive: ≤ 0 and inactive: 0.011.
In the case of `NC(=O)[C@@H](CCC(F)(F)F)N(Cc1ccc(-c2ncon2)cc1F)S(=O)(=O)c1ccc(Cl)cc1`, the “scaled lipid accumulation score” value was inactive: ≤ 0 under setting [1] and inactive: ≤ 0 under setting [2].
In the case of `O=C(O)CCC/C=C\C[C@@H]1[C@@H](/C=C/[C@H](O)C2Cc3ccccc3C2)[C@@H](F)C[C@@H]1O`, the “scaled lipid accumulation score” value under setting [2] was inactive: ≤ -0.07.
As to `COc1ccc(CNCc2cccc3ccccc23)cc1`, the “scaled lipid accumulation score” value is, setting by setting: under setting [1], inactive: 0.023; under setting [2], inactive: 0.491.
The like results for `N#CC(=C(/N)Sc1ccccc1N)/C(C#N)=C(\N)Sc1ccccc1N` were, in that order, inactive: ≤ 0 and inactive: ≤ 0.
